# The campaign covered roughly 310,000 compounds. About 14,000 (4.5%) showed an effect of 50% or more. The effect is printed as a negative number. The list shows a part of the results.
# Molecular target: human ether-à-go-go-related gene (hERG) potassium channel (human, UniProt Q12809)
# Assay: primary screen, population patch clamp on CHO cells stably expressing hERG
# 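Also: peak tail current of the secondary pulse compared with the same well before compound.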
# human ether-à-go-go-related gene (hERG) potassium channel, sequence (Q12809 whole entry, looked up): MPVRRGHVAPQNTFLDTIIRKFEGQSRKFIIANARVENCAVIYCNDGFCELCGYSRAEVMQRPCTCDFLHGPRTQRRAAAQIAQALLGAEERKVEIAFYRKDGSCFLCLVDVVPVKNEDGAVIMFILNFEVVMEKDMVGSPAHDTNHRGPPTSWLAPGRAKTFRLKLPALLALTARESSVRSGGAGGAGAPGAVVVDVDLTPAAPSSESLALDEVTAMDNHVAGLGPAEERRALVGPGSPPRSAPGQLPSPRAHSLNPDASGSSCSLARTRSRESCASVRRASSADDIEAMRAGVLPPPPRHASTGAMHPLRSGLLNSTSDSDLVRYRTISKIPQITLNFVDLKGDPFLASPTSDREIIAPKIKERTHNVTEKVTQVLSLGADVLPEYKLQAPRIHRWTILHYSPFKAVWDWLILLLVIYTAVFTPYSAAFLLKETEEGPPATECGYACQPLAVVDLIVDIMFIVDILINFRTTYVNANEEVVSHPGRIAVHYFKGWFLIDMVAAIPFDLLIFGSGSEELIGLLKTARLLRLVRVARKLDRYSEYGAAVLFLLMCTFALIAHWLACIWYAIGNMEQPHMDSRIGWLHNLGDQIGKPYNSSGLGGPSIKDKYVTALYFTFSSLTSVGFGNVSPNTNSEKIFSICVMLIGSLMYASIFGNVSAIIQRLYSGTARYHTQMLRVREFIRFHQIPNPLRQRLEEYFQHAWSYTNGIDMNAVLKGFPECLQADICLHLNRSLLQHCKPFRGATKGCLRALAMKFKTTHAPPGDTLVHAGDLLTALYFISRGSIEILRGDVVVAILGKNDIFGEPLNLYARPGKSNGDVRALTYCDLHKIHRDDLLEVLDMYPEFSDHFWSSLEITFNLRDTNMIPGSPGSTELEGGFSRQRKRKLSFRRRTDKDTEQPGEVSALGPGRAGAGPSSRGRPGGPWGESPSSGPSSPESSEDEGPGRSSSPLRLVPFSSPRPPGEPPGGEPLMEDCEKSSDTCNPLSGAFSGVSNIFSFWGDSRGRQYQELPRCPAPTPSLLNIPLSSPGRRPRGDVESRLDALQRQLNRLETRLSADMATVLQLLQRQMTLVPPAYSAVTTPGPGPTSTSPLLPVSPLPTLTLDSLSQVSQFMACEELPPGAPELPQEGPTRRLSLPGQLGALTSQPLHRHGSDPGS
row,Structure (SMILES),"hERG current change (%, negative = inhibition) at 10uM [%]"
1,CC1(C)CC(C(CC(=O)Nc2nccs2)c2ccccc2)CCO1 (stereo not drawn),14.5
2,COc1cc(OC)cc(C(=O)NC2CCN(C(=O)N3c4ccccc4Sc4ccccc43)CC2)c1,19.5
3,CC(=O)Nc1ccc(N=NN2CCOCC2)cc1,9.81
4,Cc1ccc(-c2ccc(C(=O)O)[nH]2)cc1,-19.1
5,CCCC(=O)Nc1nn(C)c2nc3cc(C)ccc3cc12,-4.77
6,O=C(CSc1nccn1-c1cccc(Cl)c1)NC1CCCC1,1.72
7,COC(=O)C(Cc1ccccc1)NC(=S)NC(=O)c1ccccc1 (stereo not drawn),4.48
8,Cc1cc(=O)oc2c1ccc1ccccc12,18.7
9,Cc1cc(NC(=O)CSc2nnc(-c3ccncc3)n2-c2ccccc2)no1,28.1
10,COCCNC(=O)C1CCN(S(=O)(=O)c2ccc3c(c2)OCCO3)CC1,6.57
11,CC(=O)/C(=C(/O)c1ccccc1)c1nc2ccccc2[nH]1,4.78
12,CC1(C)NC(=O)N(CC(O)COc2ccccc2C(=O)N2CCCCC2)C1=O (stereo not drawn),-0.085
13,Cc1c(N=C2NC(=O)/C(=C/c3ccc(O)cc3)S2)c(=O)n(-c2ccccc2)n1C,6.71
14,COc1ccc(C(=O)Cn2c(C)nc([N+](=O)[O-])c2Br)cc1,-18.7
15,COc1ccc(CC(=O)Nc2ccc(/C(C)=N/NC(=O)c3ccc(OC)cc3OC)cc2)cc1,28.2
16,COc1ccccc1-n1c(SCC(N)=O)nnc1-c1ccccc1,-9.6
17,COc1cccc(C(=O)Nc2cccc(C(=O)NCC(C)C)c2)c1,-42.5
18,C=CCNC(=S)Nc1ccc(C(N)=O)cc1,20.3
19,Nc1nc(SCC(=O)Nc2ccc([N+](=O)[O-])cc2)[nH]c(=O)c1NC(=O)c1ccc(Br)o1,17.1

row,Structure (SMILES),"hERG current change (%, negative = inhibition) at 10uM [%]"
1,Cc1csc2nc(NC(=O)c3ccccc3)sc(=O)c12,4.69
2,O=c1[nH]c(=O)c2cn[nH]c2[nH]1,1.77
3,O=C(Nc1ccc(-n2cccn2)cc1)C1CCCCN1Cc1cccc2cccnc12 (stereo not drawn),-35.3
4,COc1cccc(OC)c1OC(=O)c1cnccn1,16.1
5,CCOc1ccc(CN(C)CC(=O)Nc2ccc([N+](=O)[O-])cc2Cl)cc1,8.88
6,CC(=O)c1cccc(NC(=O)Cn2cnc(S(=O)(=O)N3CCC(C)CC3)c2)c1,7.69
7,Cc1onc(-c2ccccc2)c1C(=O)N/N=C/c1cccc(O)c1,1.94
8,Cc1cc(=O)[nH]c2cc(Cl)ccc12,9.51
9,O=C(CNC(=O)COc1ccccc1)NCCc1ccccn1,13.3
10,COc1ccc(C(=O)NOCc2ccccc2)cc1,4.61
11,CC1CN(c2nc3c(c(=O)[nH]c(=O)n3C)n2Cc2ccccc2F)CC(C)O1 (stereo not drawn),-5.53
12,O=C(COC(=O)c1ccc(S(=O)(=O)C(F)F)cc1)NC(=O)NC1CCCCC1,-18.5
13,COc1cc(NC(=S)NC(=O)c2ccc(C(C)(C)C)cc2)ccc1NC(=O)c1cccs1,25
14,Cc1ccc(C(=O)CNc2cccc(Cl)c2)cc1,10.6
15,CCN(CC)c1ccc(NC(=O)CCNC(=O)c2ccco2)cc1,18.5
16,CC[C@@]12C(=O)N(c3cccc(Br)c3)C(=O)N1[C@H](c1ccc(F)cc1)[C@@H]1C(=O)N(C3CCCCC3)C(=O)[C@@H]12,1.58
17,COc1ccc(NC(=O)/C(C#N)=C/c2cccnc2)c(OC)c1,13.9
18,O=C(O)CSc1nc2c(c(C(F)(F)F)n1)CCc1ccccc1-2,23.1
19,CCSc1nc(O)c(Cc2ccccc2)c(=O)[nH]1,-2.17

row,Structure (SMILES),"hERG current change (%, negative = inhibition) at 10uM [%]"
1,Cc1ccnc(NC(=O)CCC(=O)N(CC(=O)NCc2ccc(F)cc2)Cc2ccco2)c1,-30.6
2,CCCN1C(=O)c2cc(C(=O)O)ccc2C1O (stereo not drawn),12
3,CCO[C@@H]1OC(C(=O)NC2CC2)=C[C@H](c2ccc3c(c2)OCO3)[C@H]1CCCO,7.22
4,O=C(Nc1sc2c(c1C(=O)O)CCC2)c1ccccc1F,10.7
5,COCc1cc(C)n(CC(=O)Nc2c(C)cccc2C)c(=O)c1C#N,-2.06
6,COc1ccc(-c2nn(-c3ccccc3)cc2CNCc2cccnc2)c(F)c1,-28.1
7,CCOC(=O)NC(=O)/C(N=Nc1cccc(C(F)(F)F)c1)=C(\C)O,6.35
8,CN1CCN(S(=O)(=O)c2ccc3c(c2)OCCO3)CC1,12.1
9,O=C(CSc1nc2cc([N+](=O)[O-])ccc2n1-c1ccc(F)cc1)NC1CCS(=O)(=O)C1 (stereo not drawn),-52.6
10,COc1ccc(C(=O)N2CC3(C)CC2CC(C)(C)C3)cc1 (stereo not drawn),0.128
11,CCc1nn(C(C)C(=O)N2CC(C)CC(C)C2)c(=O)c2cc3occc3n12 (stereo not drawn),-7.58
12,Cc1cccc(C(=O)N2CCc3c([nH]c4ccccc34)C2CC(C)C)n1 (stereo not drawn),3.99
13,c1ccc2sc(N3CCN(Cc4nnnn4CC4CCCO4)CC3)nc2c1 (stereo not drawn),-18.2
14,CCOCCCNC(=O)c1cn(C)c2ccc(S(=O)(=O)N3CCCC3)cc2c1=O,8.58
15,S=C(NCCCn1ccnc1)Nc1ccc(Cl)cc1Cl,-7.65
16,CCCC(=O)Nc1ccc(N2CCN(C(=O)c3ccccc3C)CC2)cc1,-16.6
17,CCOc1ccc(-n2c(SCC(=O)Nc3cc(C(=O)O)ccc3Cl)nc3ccccc3c2=O)cc1,28.8
18,COCc1cc(C)nc(SCC(=O)Nc2ccccc2N2CCOCC2)c1C#N,-0.0594
19,CN1C(=O)SC(Nc2ccccc2C(=O)O)C1=O (stereo not drawn),4.32
